The other results are listed elsewhere or left out.
Legend:
Assay in all cases: glycan array binding signal (z-score within array); higher = stronger binding
Settings in all cases: glycan notation: IUPAC condensed, linker removed
[1] = target: Fuc(a1-2)Gal
How it was run: (§1)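 Glycan array data were curated from 3228 arrays in the Consortium for Functional Glycomics database and kept only where the protein sequence was available. Glycan names were converted to IUPAC-condensed notation, and columns mapping to the same glycan were averaged. The binding signal is a within-array Z-score, averaged across arrays of the same protein sequence at different concentrations or buffers and across linkers. Negative Z-scores can be read as non-binding.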

[2] = target: Fuc(a1-2)Gal(b1-3)GalNAc
How it was run: as §1

[3] = target: Fuc(a1-2)Gal(b1-3)GalNAc(b1-3)Gal
How it was run: as §1

[4] = target: Fuc(a1-2)Gal(b1-3)GalNAc(b1-3)Gal(a1-4)Gal(b1-4)Glc
How it was run: as §1

[5] = target: Fuc(a1-2)Gal(b1-3)GalNAc(b1-3)Gal(b1-4)Glc
How it was run: as §1

[6] = target: Fuc(a1-2)Gal(b1-3)GalNAc(b1-4)[Neu5Ac(a2-3)]Gal(b1-4)Glc
How it was run: as §1

[7] = target: Fuc(a1-2)Gal(b1-3)[Fuc(a1-4)]GlcNAc
How it was run: as §1

[8] = target: Fuc(a1-2)Gal(b1-4)Glc
How it was run: as §1

[9] = target: Fuc(a1-2)Gal(b1-4)GlcNAc
How it was run: as §1

[10] = target: Fuc(a1-2)Gal(b1-4)GlcNAc(b1-3)Gal(b1-4)GlcNAc
How it was run: as §1

[11] = target: Fuc(a1-2)Gal(b1-4)GlcNAc(b1-3)Gal(b1-4)GlcNAc(b1-3)Gal(b1-4)GlcNAc
How it was run: as §1

[12] = target: Fuc(a1-2)Gal(b1-4)[Fuc(a1-3)]GalNAc(b1-3)Gal(b1-4)[Fuc(a1-3)]GlcNAc
How it was run: as §1

[13] = target: Fuc(a1-2)Gal(b1-4)[Fuc(a1-3)]GalNAc(b1-3)Gal(b1-4)[Fuc(a1-3)]GlcNAc(b1-3)Gal(b1-4)[Fuc(a1-3)]GalNAc
How it was run: as §1

[14] = target: Fuc(a1-2)Gal(b1-4)[Fuc(a1-3)]GlcNAc
How it was run: as §1

[15] = target: Fuc(a1-2)GlcNAc
How it was run: as §1

[16] = target: Fuc(a1-2)[Gal(a1-3)]Gal
How it was run: as §1

[17] = target: Fuc(a1-2)[Gal(a1-3)]Gal(b1-3)GlcNAc
How it was run: as §1

[18] = target: Fuc(a1-2)[Gal(a1-3)]Gal(b1-4)Glc
How it was run: as §1

[19] = target: Fuc(a1-2)[Gal(a1-3)]Gal(b1-4)GlcNAc
How it was run: as §1

[20] = target: Fuc(a1-2)[Gal(a1-3)]Gal(b1-4)[Fuc(a1-3)]GlcNAc
How it was run: as §1

[21] = target: Fuc(a1-2)[Gal(a1-4)]Gal(b1-4)GalNAc
How it was run: as §1

[22] = target: Fuc(a1-2)[GalNAc(a1-3)]Gal
How it was run: as §1

[23] = target: Fuc(a1-2)[GalNAc(a1-3)]Gal(b1-3)GlcNAc
How it was run: as §1

[24] = target: Fuc(a1-2)[GalNAc(a1-3)]Gal(b1-4)Glc
How it was run: as §1

[25] = target: Fuc(a1-2)[GalNAc(a1-3)]Gal(b1-4)GlcNAc
How it was run: as §1

[26] = target: Fuc(a1-2)[GalNAc(a1-3)]Gal(b1-4)[Fuc(a1-3)]GlcNAc
How it was run: as §1

[27] = target: Fuc(a1-2)[GalNAc(a1-4)]Gal(b1-4)GlcNAc
How it was run: as §1

[28] = target: Fuc(a1-3)GlcNAc
How it was run: as §1

[29] = target: Fuc(a1-3)[Gal(b1-4)]GlcNAc
How it was run: as §1

[30] = target: Fuc(a1-3)[Gal(b1-4)]GlcNAc(b1-4)Gal(b1-4)[Fuc(a1-3)]GlcNAc
How it was run: as §1

[31] = target: Fuc(a1-3)[Gal(b1-4)]GlcNAc(b1-4)Gal(b1-4)[Fuc(a1-3)]GlcNAc(b1-4)Gal(b1-4)[Fuc(a1-3)]GlcNAc
How it was run: as §1

[32] = target: Fuc(a1-3)[Gal3S(b1-4)]GlcNAc
How it was run: as §1

[33] = target: Fuc(a1-3)[GalNAc(b1-4)]Gal(b1-4)GlcNAc
How it was run: as §1

[34] = target: Fuc(a1-4)GlcNAc
How it was run: as §1

[35] = target: Fuc(b1-3)GlcNAc
How it was run: as §1

[36] = target: Gal(a1-2)Gal
How it was run: as §1

[37] = target: Gal(a1-3)Gal
How it was run: as §1

[38] = target: Gal(a1-3)Gal(b1-3)Glc
How it was run: as §1

[39] = target: Gal(a1-3)Gal(b1-3)GlcNAc
How it was run: as §1

[40] = target: Gal(a1-3)Gal(b1-4)GlcNAc
How it was run: as §1

[41] = target: Gal(a1-3)Gal(b1-4)[Fuc(a1-3)]GalNAc
How it was run: as §1

[42] = target: Gal(a1-3)GlcNAc
How it was run: as §1

[43] = target: Gal(a1-3)[Gal(a1-4)]Gal(b1-4)GlcNAc
How it was run: as §1

[44] = target: Gal(a1-4)Gal(b1-4)Gal
How it was run: as §1

[45] = target: Gal(a1-4)Gal(b1-4)GalNAc
How it was run: as §1

B1: TbCVNHOa (Tuber borchii), Q5MK11 (protein)
chain: GSHIGPYMSYADSSRNAVLTNGGRTLRAECRNADGNWVTSELDLDTCIGNPNGFLGWGMQNFSHSSEDIKLEEGGRKLTCRPKTVDGGFRERQGIDLNRIQNVNGRLVFQ
- glycan array binding signal (z-score) [1]: -0.262
- glycan array binding signal (z-score) [2]: 0.076
- glycan array binding signal (z-score) [3]: -0.24
- glycan array binding signal (z-score) [4]: -0.223
- glycan array binding signal (z-score) [5]: 3.46
- glycan array binding signal (z-score) [6]: -0.251
- glycan array binding signal (z-score) [7]: -0.251
- glycan array binding signal (z-score) [8]: -0.283
- glycan array binding signal (z-score) [9]: -0.255
- glycan array binding signal (z-score) [10]: -0.3
- glycan array binding signal (z-score) [11]: -0.253
- glycan array binding signal (z-score) [12]: -0.27
- glycan array binding signal (z-score) [13]: -0.201
- glycan array binding signal (z-score) [14]: -0.263
- glycan array binding signal (z-score) [15]: -0.228
- glycan array binding signal (z-score) [16]: -0.29
- glycan array binding signal (z-score) [17]: -0.223
- glycan array binding signal (z-score) [18]: -0.18
- glycan array binding signal (z-score) [19]: -0.211
- glycan array binding signal (z-score) [20]: -0.213
- glycan array binding signal (z-score) [21]: -0.288
- glycan array binding signal (z-score) [22]: -0.124
- glycan array binding signal (z-score) [23]: 1.98
- glycan array binding signal (z-score) [24]: 0.217
- glycan array binding signal (z-score) [25]: 0.133
- glycan array binding signal (z-score) [26]: 0.143
- glycan array binding signal (z-score) [27]: -0.287
- glycan array binding signal (z-score) [28]: -0.282
- glycan array binding signal (z-score) [29]: -0.257
- glycan array binding signal (z-score) [30]: 0.357
- glycan array binding signal (z-score) [31]: -0.268
- glycan array binding signal (z-score) [32]: -0.265
- glycan array binding signal (z-score) [33]: -0.229
- glycan array binding signal (z-score) [34]: -0.265
- glycan array binding signal (z-score) [35]: -0.091
- glycan array binding signal (z-score) [36]: -0.273
- glycan array binding signal (z-score) [37]: -0.273
- glycan array binding signal (z-score) [38]: -0.244
- glycan array binding signal (z-score) [39]: -0.283
- glycan array binding signal (z-score) [40]: -0.254
- glycan array binding signal (z-score) [41]: -0.255
- glycan array binding signal (z-score) [42]: -0.258
- glycan array binding signal (z-score) [43]: -0.209
- glycan array binding signal (z-score) [44]: -0.242
- glycan array binding signal (z-score) [45]: -0.231
